According to PubChem BioAssay AID1346428 (National Center for Advancing Translational Sciences (NCATS), 2018):
The whole screen tested about 48,000 compounds, of which about 1,200 (2.5%) were called active. Not shown: some 2% with an inconclusive outcome.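 How the source made its calls: active means activation of at least 60% and not above a set upper limit (about 1 call in 100 departs from these limits); inconclusive means activation of 40% to 60%, or above that upper limit; inactive means activation under 40%.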 Some of the results follow.

Target: Probable G-protein coupled receptor 32 (Homo sapiens) (UniProt O75388)
Sequence of UniProt O75388 (O75388 whole entry, looked up): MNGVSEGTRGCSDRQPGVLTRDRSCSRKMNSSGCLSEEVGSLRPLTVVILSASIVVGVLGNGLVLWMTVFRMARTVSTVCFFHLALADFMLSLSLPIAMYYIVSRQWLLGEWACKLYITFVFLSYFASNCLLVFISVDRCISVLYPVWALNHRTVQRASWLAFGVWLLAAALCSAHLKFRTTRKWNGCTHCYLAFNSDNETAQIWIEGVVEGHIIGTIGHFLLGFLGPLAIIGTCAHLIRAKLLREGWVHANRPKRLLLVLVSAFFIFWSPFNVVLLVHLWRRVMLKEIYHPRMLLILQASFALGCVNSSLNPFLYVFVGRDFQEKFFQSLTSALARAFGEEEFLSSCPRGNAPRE
Experiment: qHTS for Agonists of Human Resolvin D1 Receptor DRV1; further: 0% is about no effect
Settings: CHO-K1 GPR32 beta-arrestin PathHunter luminescence, 90 min; at 76.9 µM; active compounds read high; zero percent set by DMSO-only wells
Outline: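 Agonism was scored as beta-arrestin recruitment to ProLink-fused GPR32 in stably transfected CHO-K1 cells, giving a chemiluminescent beta-Gal signal; compounds were incubated 90 min at 37 °C.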

activation, inactive:
Cc1ccc(CNC(=O)c2ccc(-n3cnc4cccnc43)cc2)cc1 8.82%
CCOc1ccccc1NC(=O)NCCn1c(=O)oc2ccc(C)cc21 20.4%
COc1ccc(-c2nc(-c3ccccc3)c(-c3ccc(O)cc3)[nH]2)cc1 -9.43%
COc1ccccc1CNS(=O)(=O)c1cc2c3c(c1)CCN3C(=O)CC2 12.5%
COC(=O)c1ccccc1NC(=O)Cn1nnc2sc(-c3ccccc3)cc2c1=O 47%
CCc1ccc(-c2nn(CC(=O)NC3CCCC3)c3c2cnc2ccc(F)cc23)cc1 -13.2%
COc1ccccc1C(=O)NCCn1cc(SCc2ccccc2Cl)c2ccccc21 -1.41%
COc1ccccc1C(=O)Nc1nc(-c2ccccc2)ns1 2.96%
COc1ccc(Cn2c(C(=O)O)c(CNC3CCCCCC3)c3ccc(OC)cc32)cc1 39.9%
O=C(/C=C/c1ccc(F)cc1)Nc1nc2n(n1)C(c1ccc(Cl)cc1)C=C(c1ccccc1)N2 (centres undefined) -13.2%
COc1ccc(OC)c(CNC(=O)CCn2c(=O)c3cccn3c3ccc(F)cc32)c1 -6.34%
Cc1ccc2sc(N3CCN(C(=O)CCS(=O)(=O)c4ccc(F)cc4)CC3)nc2c1C 21.8%
Cc1noc(/C=C/c2ccco2)c1S(=O)(=O)N1CCC(C(=O)Nc2ccc(F)c(Cl)c2)CC1 -15%
COc1ccc(-n2ncc3c(NCCC4=CCCCC4)ncnc32)cc1 46.3%
CCC1=Nc2cc(C(=O)NC3CCCC3)ccc2Sc2ccc(Br)cc21 -19.1%
Cc1ccc(N2CC(C(=O)Nc3ccc(Br)cc3)CC2=O)cc1 (centres undefined) 3.79%
Cc1ccccc1-c1nc(CS(=O)(=O)CC(=O)NCc2cccc(Cl)c2)c(C)o1 12.3%
COc1ccc(C(=O)n2nc(-c3ccco3)nc2NCc2cccs2)cc1 -32.2%
C=Cc1ccc(CN2C(=O)N(c3cccc(Cl)c3)S(=O)(=O)c3ccccc32)cc1 -6.68%
Cc1ccc2c(=O)c(C(=O)c3cccc(Cl)c3)cn(CC(=O)NCc3ccc(F)cc3)c2n1 2.74%
COc1cc(NC(=O)Cn2ncc3c([nH]c4ccc(C)cc43)c2=O)cc(OC)c1OC 3.5%
COc1cc(C(=O)Nc2ccc3oc(-c4ccccc4)nc3c2)cc(OC)c1OC 2.16%
COc1ccc(NC(=O)CSc2nnc(-c3cccs3)o2)cc1 -6.15%
CCOc1ccccc1Nc1cc(-c2ccccc2)nc(C)n1 -11.8%
